Laboratory results: patent publication US12662541B2, “Antibody-drug conjugates against the receptor tyrosine kinase EphA5” (Rutgers, The State University of New Jersey, priority 2021, dated 2026)

B1: VH5/VK3: humanized anti-EphA5 IgG1/kappa antibody, heavy chain SEQ ID NO:39, light chain SEQ ID NO:40 (antibody)
heavy: EVQLVESGGGLVQPGGSLKLSCAASGFTFSTFGIHWVRQAPGKGLEWVAYISGASTTIYYADSVKGRFTISRDNSKNTLYLQMNSLRAEDTAVYYCARYGTSFPYGLDYWGQGTLVTVSSASTKGPSVFPLAPSSKSTSGGTAALGCLVKDYFPEPVTVSWNSGALTSGVHTFPAVLQSSGLYSLSSVVTVPSSSLGTQTYICNVNHKPSNTKVDKRV[letters of human IgG1 Fc left out]
light: DIVMTQSPDSLAVSLGERATINCKASQSVDYDGDSYMNWYQQKPGKAPKLLIYGASNLESGIPDRFSGSGSGTDFTLTISRLEPEDAAVYYCQQSNEDPFTFGQGTKLEIKRTVAAPSVFIFPPSDEQLKSGTASVVCLLNNFYPREAKVQWKVDNALQSGNSQESVTEQDSKDSTYSLSSTLTLSKADYEKHKVYACEVTHQGLSSPVTKSFNRGEC
B2: VH5Vk3-ThioBridge®-VCP-MMAE (conjugate)
heavy: EVQLVESGGGLVQPGGSLKLSCAASGFTFSTFGIHWVRQAPGKGLEWVAYISGASTTIYYADSVKGRFTISRDNSKNTLYLQMNSLRAEDTAVYYCARYGTSFPYGLDYWGQGTLVTVSSASTKGPSVFPLAPSSKSTSGGTAALGCLVKDYFPEPVTVSWNSGALTSGVHTFPAVLQSSGLYSLSSVVTVPSSSLGTQTYICNVNHKPSNTKVDKRV[letters of human IgG1 Fc left out]
light: DIVMTQSPDSLAVSLGERATINCKASQSVDYDGDSYMNWYQQKPGKAPKLLIYGASNLESGIPDRFSGSGSGTDFTLTISRLEPEDAAVYYCQQSNEDPFTFGQGTKLEIKRTVAAPSVFIFPPSDEQLKSGTASVVCLLNNFYPREAKVQWKVDNALQSGNSQESVTEQDSKDSTYSLSSTLTLSKADYEKHKVYACEVTHQGLSSPVTKSFNRGEC

What was measured:
rhEphA5 antigen = biological target: T1, rhEphA5 antigen (Homo sapiens, UniProt P54756); experiment: Multi-cycle kinetic analysis (Biacore T200) of purified antibodies; assay type: binding
T1 construct: purchased R and D systems 3036-A5
T1 sequence (P54756 25-573 limits assumed): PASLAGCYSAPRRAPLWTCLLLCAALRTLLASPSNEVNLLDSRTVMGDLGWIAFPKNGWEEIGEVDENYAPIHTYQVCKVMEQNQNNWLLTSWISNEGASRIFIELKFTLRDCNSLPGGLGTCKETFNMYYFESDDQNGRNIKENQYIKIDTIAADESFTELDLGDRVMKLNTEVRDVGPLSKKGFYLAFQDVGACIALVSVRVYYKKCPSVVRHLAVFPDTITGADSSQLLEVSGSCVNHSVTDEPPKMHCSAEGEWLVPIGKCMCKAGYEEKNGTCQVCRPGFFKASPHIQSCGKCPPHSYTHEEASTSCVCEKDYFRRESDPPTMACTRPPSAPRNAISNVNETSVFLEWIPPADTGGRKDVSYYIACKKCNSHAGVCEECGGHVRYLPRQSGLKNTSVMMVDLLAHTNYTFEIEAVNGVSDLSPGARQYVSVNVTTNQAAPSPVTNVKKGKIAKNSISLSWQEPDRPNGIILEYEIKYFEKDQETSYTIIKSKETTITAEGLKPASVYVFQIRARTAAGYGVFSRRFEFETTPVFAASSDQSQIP
Method: In order to assess the binding of the six lead humanized variants to rhEphA5 antigen, multi-cycle kinetic analysis (FIG. 68) was performed on purified material. Kinetic experiments were performed at 25° C. on a Biacore T200 running Biacore T200 Control software V2.0.1 and Evaluation software V3.0 (GE Healthcare, Uppsala, Sweden).
HBS-P+ (GE Healthcare, Uppsala, Sweden), supplemented with 1% BSA w/v (Sigma, Dorset, UK) was used as running buffer as well as for ligand and analyte dilutions. Purified lead antibodies were diluted to 0.5 μg/mL in running buffer and at the start of each cycle, loaded onto Fc2, Fc3 and Fc4 of an anti-human IgG CMS sensor chip (GE Healthcare, Little Chalfont, UK). Antibodies were captured at a flow rate of 10 μl/min to give an immobilization level (RL) of 50 RU. The surface was then allowed to stabilize.
Multi-cycle kinetic data was obtained using recombinant EphA5 as the analytes injected at a flow rate of 30 μl/min to minimize any potential mass transfer effects. A five point, three-fold dilution range from 1.11 nM to 270 nM of EphA5 was prepared in running buffer. For each concentration, the association phases were monitored for 210 seconds and the dissociation phase was measured for 900 seconds. Regeneration of the sensor chip surface was conducted between cycles using two injections of 3 M MgCl2. […]

EphA5 antigen = biological target: T2, EphA5 antigen (Homo sapiens, UniProt P54756); experiment: kd (1/s)
T2 construct: purchased R and D systems 3036-A5
T2 sequence (P54756 25-1037 limits assumed): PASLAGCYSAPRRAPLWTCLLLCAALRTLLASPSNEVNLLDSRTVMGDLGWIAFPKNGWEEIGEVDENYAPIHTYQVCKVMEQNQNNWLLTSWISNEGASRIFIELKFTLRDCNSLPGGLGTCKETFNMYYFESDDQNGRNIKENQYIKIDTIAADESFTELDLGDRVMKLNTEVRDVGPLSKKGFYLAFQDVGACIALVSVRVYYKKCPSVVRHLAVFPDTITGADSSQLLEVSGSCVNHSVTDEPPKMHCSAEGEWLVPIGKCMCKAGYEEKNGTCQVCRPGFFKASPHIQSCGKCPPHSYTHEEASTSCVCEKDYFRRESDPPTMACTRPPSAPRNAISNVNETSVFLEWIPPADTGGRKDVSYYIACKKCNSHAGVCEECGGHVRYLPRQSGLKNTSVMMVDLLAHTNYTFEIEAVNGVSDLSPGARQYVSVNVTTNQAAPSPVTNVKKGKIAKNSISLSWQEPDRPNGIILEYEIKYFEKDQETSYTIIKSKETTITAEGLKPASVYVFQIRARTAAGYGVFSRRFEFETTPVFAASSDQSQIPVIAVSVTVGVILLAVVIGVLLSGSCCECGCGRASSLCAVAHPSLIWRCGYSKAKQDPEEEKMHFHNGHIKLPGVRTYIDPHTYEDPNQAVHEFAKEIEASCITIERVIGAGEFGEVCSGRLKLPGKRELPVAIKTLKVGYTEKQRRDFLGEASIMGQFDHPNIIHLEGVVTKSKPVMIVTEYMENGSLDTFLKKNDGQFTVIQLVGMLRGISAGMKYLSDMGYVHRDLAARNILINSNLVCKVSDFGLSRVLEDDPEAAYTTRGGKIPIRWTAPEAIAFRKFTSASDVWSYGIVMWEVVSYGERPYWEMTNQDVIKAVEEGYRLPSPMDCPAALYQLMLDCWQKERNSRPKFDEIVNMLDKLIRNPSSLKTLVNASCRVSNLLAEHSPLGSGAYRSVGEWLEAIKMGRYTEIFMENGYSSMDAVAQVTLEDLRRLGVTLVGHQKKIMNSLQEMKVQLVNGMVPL
Method: Table printed on a drawing sheet, FIG. 19
Head of the field: kd (1/s)
The patent's description of the figure: FIG. 19 is a table illustrating the Multi-cycle kinetic parameters of chimeric (VH0/VK0) and humanized variants (tested as purified proteins) binding to EphA5 antigen as determined using the Biacore T200. The relative KD was calculated by dividing the KD of the humanized variant by that of the VH0VK0 (first row) assayed in the same experiment. […]
Where the first naming reader finds the target: description_of_the_figure: humanized variants (tested as purified proteins) binding to EphA5 antigen as determined using the Biacore T200

H226 (EphA5-negative) = experiment: Cell death time-course (Green Object Count), H226; assay type: cell-based, human; conditions: FIG. 4B
[1] = test system: H460-derived xenograft model of human lung cancer; experiment: H460 xenograft efficacy; assay type: in vivo, mice; conditions: 10 mg/kg every 5 days, 3 doses, n=9
[2] = Body weight and tolerability of PDX-bearing mice before and after treatment
[3] = test system: PDX TM00219 (LG1049F), lung adenocarcinoma; experiment: PDX TM00219 efficacy; assay type: in vivo, mice
Method: The present studies were performed using female NSG™ mice purchased from Jackson Laboratories, reference number TM00219 (LG1049F). These mice are extremely immunodeficient and carry two mutations: severe combined immune deficiency (scid) and a complete null allele of the IL2 receptor common gamma chain (IL2rg^null). The scid mutation is a mutation in the DNA repair complex protein Prkdc and renders the mice B and T cell deficient. The IL2rg^null mutation prevents cytokine signaling through multiple receptors, leading to a deficiency in functional NK cells. This severe immunodeficiency allows the implantation of patient derived xenografts (PDX) and growth of human tissue-based tumors in the mice. These tumors have similar characteristics to the human tumors from which they are derived (e.g., gene expression) and are predictive of human response to therapeutic agents.
Mice received 5 weekly doses of ADC1 or ADC2 at 10 mg/kg or PBS via tail vein injection. Animals were dosed on days 0, 7, 14, 21 and 28 followed by 3 weeks of observation (day 28-50) without treatment. The number of mice used per group averaged n=8 with some mice presenting with more than 1 tumor implanted subcutaneously. In those cases, each tumor size was measured and recorded independently. Measurements were performed 2-3 times weekly with the aid of a digital caliper (Fisherbrand™ Traceable™ Digital Carbon Fiber Calipers). Studies lasted on average 50 days or until maximum allowed tumor volume was reached and/or skin ulceration was noted. All studies included a control group of an equal number of mice to those in the treatment group. Control groups received PBS tail vein injections and were submitted to the same handling procedures as ADC1 and ADC2 treated mice. First treatment was administered when tumors reached 100-150 mm^3 volume.

| Molecule | RMAX (rhEphA5 antigen; 1:1 model fit) | kd (rhEphA5 antigen; 1:1 model, binding to EphA5) [s⁻¹] | kd (EphA5 antigen) [s⁻¹] | killing of EPHA5− cells (H226 (EphA5-negative)) | tumors with partial regression [1] [tumors] | change in body weight before and after treatment ([2]; TM00096-bearing mice, 10 mg/kg weekly, ADC2 = VH4Vk3-ThioBridge-VCP-MMAE, listed as ADC1, 10 mg/kg) | tolerability ([2]; TM00098-bearing mice, 10 mg/Kg weekly for 5 doses, ADC2 = VH5Vk3-ThioBridge®-VCP-(SN-38)2) | change in body weight before and after treatment ([2]; TM00098-bearing mice, ADC2 = VH5Vk3-ThioBridge®-VCP-(SN-38)2, listed as ADC1) | change in body weight before and after treatment ([2]; TM00188-bearing mice, ADC2 = VH5Vk3-ThioBridge®-VCP-(SN-38)2, listed as ADC1) | change in body weight before and after treatment ([2]; TM00219-bearing mice, ADC2 = VH5Vk3-ThioBridge®-VCP-(SN-38)2, listed as ADC1) | change in body weight before and after treatment ([2]; TM00226-bearing mice, ADC2 = VH5Vk3-ThioBridge®-VCP-(SN-38)2, listed as ADC1) | tumors remaining at the end of the study [3] | tumor response (tumor volume) ([3]; 5 weekly doses of 10 mg/kg tail vein, ADC2 = VH5Vk3-ThioBridge®-VCP-(SN-38)2) | tumors regressed completely ([3]; of a total of 11 tumors) [tumors] |
| --- | --- | --- | --- | --- | --- | --- | --- | --- | --- | --- | --- | --- | --- | --- |
| B1 | 35.3 | 0.00135 | 0.00135 |  |  |  |  |  |  |  |  |  |  |  |
| B2 |  |  |  | not EPHA5− cells | 8 | no significant changes in body weight; also recorded: no significant differences in body weight | well tolerated for both ADC1 and ADC2, and no toxicity or weight loss was observed | no significant changes in body weight; also recorded: did not show significant changes in body weight | no significant changes in body weight; also recorded: did not show significant changes in body weight | no significant changes in body weight; also recorded: did not show significant changes in body weight | no significant changes in body weight; also recorded: did not show significant changes in body weight | Five | full and sustained regression of tumors | 6 |

Entries after “also recorded” stand apart in the source; their conditions may differ.
